Test results from ChEMBL document CHEMBL4888484, “Replenishing the malaria drug discovery pipeline: Screening and hit evaluation of the MMV Hit Generation Library 1 (HGL1) against asexual blood stage Plasmodium falciparum ,using a nano luciferase reporter read-out” (2022).
Screen size: about 150,000 compounds; about 540 (0.36%) showed an effect of 50% or more. Some of the results follow.

The molecules below were run on Plasmodium falciparum (assay: Primary screen in NF54 nanoGlo assay, in single point, at 2uM, 72h; a lower Z score goes with more inhibition). Conditions: timepoint 72 hour.
Assay type: functional, Erythrocyte
In the case of `COc1ccc(C(=O)NC[C@@]23CCCC=C2N(CC2CC2)C(=O)CC3)cc1`, the “% Inhibition” value is reported as -9% and the Z score is reported as 1.34.
`O=C1C[C@H](c2nc(-c3ccncc3)no2)CN1c1ccccc1` was tested, and the “% Inhibition” value was -15% and the Z score was 1.59.
For `CC(C)(C)c1ccc(C(=O)N2CCC3(CC2)C(=O)N(CC(=O)N2CCCCC2)CN3c2ccccc2)cc1`, the “% Inhibition” value was -13% and the Z score was 1.99.
For `C[C@@H](c1cccnc1)N(Cc1ccc(OC(F)F)c(F)c1)CC1CCOCC1`, the “% Inhibition” value was 16% and the Z score was -2.12.
With `Cc1nn(-c2ccccc2)c2nc(C(=O)N(C)CC(=O)N3CCOCC3)ccc12` the “% Inhibition” value was -10% and the Z score was 1.19.
For `Cc1ccc(C)c(NS(=O)(=O)c2cc(-c3nc(C)cs3)n(CC(=O)N3CCCC3)c2)c1`, the “% Inhibition” value was 3% and the Z score was -0.32.
For `OCc1ccc(-c2cccc3c2CCC3)cn1`, the “% Inhibition” value was -15% and the Z score was 1.48.
With `O=C(CCc1cnccn1)NCCCn1cc(Cl)cn1` the “% Inhibition” value was -8% and the Z score was 1.26.
In the case of `Cc1sc(S(N)(=O)=O)cc1NC(=O)NCCc1csc(N2CCCC2)n1`, the “% Inhibition” value is reported as -5% and the Z score is reported as 0.98.
For `CCc1csc(-c2ccc(S(=O)(=O)NCc3ccccc3C(F)(F)F)s2)n1`, the “% Inhibition” value was -1% and the Z score was 0.13.
In the case of `Cc1ccc(N2C(=O)N(Cc3c(C)noc3C)S(=O)(=O)c3cccnc32)cc1F`, the “% Inhibition” value is reported as -25% and the Z score is reported as 2.56.
For `Cc1ccc([C@H](C)NCc2nnc(C(C)C)n2C)o1`, the “% Inhibition” value was -14% and the Z score was 1.87.
`CC1(C)C[C@H](NCc2cccnc2OCC(F)F)C(C)(C)O1` was tested, and the “% Inhibition” value was -4% and the Z score was 0.67.
In the case of `O=C(NCC(=O)N(C[C@H]1CCCO1)C1(C(=O)NC2CCCCC2)CCCCC1)c1ccccc1`, the “% Inhibition” value is reported as 49% and the Z score is reported as -6.38.
In the case of `Cc1ccc([C@@H](c2ccncc2)n2ccnc2-c2ccco2)cc1`, the “% Inhibition” value is reported as -4% and the Z score is reported as 0.57.
`O=C(NC1CC1)[C@@H]1CN(Cc2cc(F)cc(F)c2)C[C@H]1CO` was tested, and the “% Inhibition” value was -6% and the Z score was 0.92.
In the case of `O=C(Cc1cncs1)N1CCC[C@H](OCCO)C1`, the “% Inhibition” value is reported as -2% and the Z score is reported as 0.33.
In the case of `Cc1c[nH]c(CN(C)Cc2ccc(-n3cccn3)cc2)c(C)c1=O`, the “% Inhibition” value is reported as 4% and the Z score is reported as -0.54.
With `O=C(NCc1ccccn1)c1cn2cc(C(F)(F)F)cc(Cl)c2n1` the “% Inhibition” value was -18% and the Z score was 3.52.
In the case of `CCN(CC)C[C@H](C)NS(=O)(=O)CCNS(=O)(=O)c1ccccc1`, the “% Inhibition” value is reported as -16% and the Z score is reported as 2.
With `CCCNC(=O)[C@@H]1CCCC[C@@H]1C(=O)Nc1c(C)c(C)cc2[nH]c(=O)[nH]c12` the “% Inhibition” value was -8% and the Z score was 0.9.
`CCC1(NC(=O)N2CCN(c3ccccc3)C(=O)[C@@H]2C)CCCC1` was tested, and the “% Inhibition” value was -12% and the Z score was 1.16.
With `O=C1c2ccccc2C(=O)N1Cc1nc2ccccc2c(=O)[nH]1` the “% Inhibition” value was 0% and the Z score was 0.01.
With `Cc1cc(NC(=O)NCC(C2CC2)C2CC2)n(Cc2ccccn2)n1` the “% Inhibition” value was -15% and the Z score was 1.31.
`C[C@@H](CN1CCOCC1)N1CCN(c2ccnc(N(C)C)n2)CC1` was tested, and the “% Inhibition” value was -10% and the Z score was 1.45.
With `CN(CC(=O)c1ccc(O)cc1)C(=O)c1cc2ccccc2n1C` the “% Inhibition” value was 22% and the Z score was -3.16.
For `COc1cccn(Cc2noc([C@@H]3CCCO3)n2)c1=O`, the “% Inhibition” value was -10% and the Z score was 1.63.
With `COc1ccc(Cl)cc1N1CCN(C(=O)c2cccs2)[C@@H](C)C1=O` the “% Inhibition” value was 8% and the Z score was -1.6.
For `CCc1cc(-c2nc([C@H]3CCOC3)no2)ccn1`, the “% Inhibition” value was -11% and the Z score was 1.74.
`CCNC(=O)Nc1ccc(-c2cn(C(F)F)nc2C)cc1` was tested, and the “% Inhibition” value was 7% and the Z score was -0.89.
`CC(C)Nc1ncccc1S(C)(=O)=O` was tested, and the “% Inhibition” value was -12% and the Z score was 1.56.
In the case of `CC(C)N(CC(N)=O)Cc1ccsc1`, the “% Inhibition” value is reported as 32% and the Z score is reported as -3.58.
For `CN(C(=O)OC(C)(C)C)C1(C(=O)N2CC[C@](C)(C(N)=O)C2)CCC1`, the “% Inhibition” value was -11% and the Z score was 1.45.
`O=C(Cn1nc2n(c1=O)CCCC2)Nc1cccc(C(F)(F)F)c1` was tested, and the “% Inhibition” value was -11% and the Z score was 1.49.
`Cc1ccccc1Cc1nnn(C[C@H](O)COCc2ccco2)n1` was tested, and the “% Inhibition” value was -11% and the Z score was 1.41.
In the case of `N#Cc1cc(S(=O)(=O)N[C@H]2CCCS(=O)(=O)C2)ccc1Cl`, the “% Inhibition” value is reported as -19% and the Z score is reported as 1.71.
`CC(C)n1ccc(C(=O)N(C)C[C@@H](O)Cc2ccccc2)n1` was tested, and the “% Inhibition” value was -2% and the Z score was 0.32.
With `Cn1cc(C(O)CNC2CC(OC(C)(C)C)C23CCC3)cn1` (stereo not drawn) the “% Inhibition” value was -8% and the Z score was 1.05.
For `Cc1nc(C)c(CC(=O)N2CCC3(CC2)Cc2cn(nn2)CCCOc2ccc(cc2)CCNC3=O)c(=O)[nH]1`, the “% Inhibition” value was 4% and the Z score was -0.7.
With `CC(C)(C)C(=O)NCc1nc([C@H]2CCOC2)no1` the “% Inhibition” value was -9% and the Z score was 1.27.
With `Nc1n[nH]c2nccc(-c3ccccc3)c12` the “% Inhibition” value was -14% and the Z score was 1.6.
With `COc1ccc(-c2cc3c(=O)n(Cc4ccccc4Cl)ccn3n2)cc1` the “% Inhibition” value was 0% and the Z score was 0.01.
With `Cc1nc(CCCC(=O)N2CC[C@H](CCO)C2)cs1` the “% Inhibition” value was 0% and the Z score was 0.01.
`Cc1ccc2c(c1)CCCN2C(=O)c1cccc(-n2cnnn2)c1` was tested, and the “% Inhibition” value was -7% and the Z score was 1.36.
With `CNC(=O)[C@H]1CCCN(c2nc3ncn(CC(=O)Nc4ccccc4)c(=O)c3s2)C1` the “% Inhibition” value was -31% and the Z score was 2.71.
For `Cc1cccc2c1C(C)CC2NCCN1C(=O)CNC1=O` (stereo not drawn), the “% Inhibition” value was -3% and the Z score was 0.41.
`C=CCNC(=O)N[C@H]1[C@H](O)[C@@H](n2ccnc2)[C@@H]2OC[C@H]1O2` was tested, and the “% Inhibition” value was 27% and the Z score was -3.1.
In the case of `CC(C)N(Cc1cnn(C)c1)C(=O)C[C@@H](c1ccccc1)c1ccccc1F`, the “% Inhibition” value is reported as -8% and the Z score is reported as 1.01.
For `CC(C)C1CCN(S(=O)(=O)c2sc3c(c2C(=O)O)CCNC3)CC1`, the “% Inhibition” value was -2% and the Z score was 0.23.
With `C[C@H]1CN(CC(=O)N(C)C2CC2)c2ccccc2CN1C(=O)OC(C)(C)C` the “% Inhibition” value was -12% and the Z score was 1.21.
`O=C1C[C@@H](c2ccc(Cl)cc2)N=C(NC(=O)c2ccc(Oc3ccccc3)cc2)N1` was tested, and the “% Inhibition” value was -4% and the Z score was 0.44.
`COc1ccc(/C=C/c2ccnc(N3CCCC3)n2)cc1` was tested, and the “% Inhibition” value was 6% and the Z score was -1.06.
In the case of `CC1(C)CN(Cc2cnn(C3(C)CCS(=O)(=O)C3)c2)CCC1C(F)(F)F` (stereo not drawn), the “% Inhibition” value is reported as -16% and the Z score is reported as 1.38.
With `Cc1ccccc1C1CC1C(=O)NCc1n[nH]c(=O)[nH]1` (stereo not drawn) the “% Inhibition” value was -7% and the Z score was 0.97.
In the case of `CNC(=O)CN(C)Cc1ccn(C(C)C)n1`, the “% Inhibition” value is reported as -7% and the Z score is reported as 0.97.
With `CC1CC1c1ccc(CNC(=O)N(C)C(C)CS(C)(=O)=O)o1` (stereo not drawn) the “% Inhibition” value was 17% and the Z score was -1.55.
`CO[C@@H]1CC[C@@]2(OC)CCN(Cc3ccccc3OCCO)[C@H]2C1` was tested, and the “% Inhibition” value was -4% and the Z score was 0.5.
With `O=C(Cc1ccccc1)Nc1ccc2oc(-c3ccc4ccccc4c3)nc2c1` the “% Inhibition” value was -14% and the Z score was 2.67.
In the case of `C[C@H]1CCCCN1C(=O)c1ccc(NC(=O)Nc2cnn(CCO)c2)cc1`, the “% Inhibition” value is reported as -18% and the Z score is reported as 2.08.
In the case of `Cc1ccc([C@H](CNC(=O)COc2cc(C)c(Cl)c(C)c2)N2CCCC2)o1`, the “% Inhibition” value is reported as 2% and the Z score is reported as -0.33.
In the case of `Cc1noc(C)c1CCC(=O)N1CCC[C@H](OCCO)C1`, the “% Inhibition” value is reported as 0% and the Z score is reported as 0.06.
With `O=S(=O)(c1cnccc1C(F)(F)F)N1CC2(CC2)C1` the “% Inhibition” value was -4% and the Z score was 0.7.
In the case of `C[C@@H](C(=O)NC(=O)NC1CC1)N(C)Cc1cnn(-c2ccccc2)c1`, the “% Inhibition” value is reported as -13% and the Z score is reported as 1.57.
With `CC1(O)C2CCCC2=NN1c1nc2ccccc2s1` (stereo not drawn) the “% Inhibition” value was 15% and the Z score was -1.92.
For `CC(NCC(CCO)c1ccccc1)C(C)NC(=O)OC(C)(C)C` (stereo not drawn), the “% Inhibition” value was -9% and the Z score was 1.5.
`Cc1sc(N)nc1-c1ccc2c(c1)CCC2` was tested, and the “% Inhibition” value was -13% and the Z score was 1.92.
For `O=C(c1ccccc1O)N1CCc2[nH]nc(-c3cccc4ccccc34)c2C1`, the “% Inhibition” value was -1% and the Z score was 0.11.
`O=C([C@H](Cc1ccccc1)N1Cc2ccccc2C1=O)N1CC=C(c2ccccc2)CC1` was tested, and the “% Inhibition” value was -19% and the Z score was 2.39.
`CCC[C@H](C)n1ccnc1-c1cccc(C)n1` was tested, and the “% Inhibition” value was -5% and the Z score was 0.84.
With `Cc1ccc(Oc2cccc(C(=O)Nc3ccc(C(N)=O)cc3)c2)nn1` the “% Inhibition” value was -22% and the Z score was 1.94.
For `COc1ccc(CNC(=O)Cc2nnc(-c3cccs3)o2)cc1`, the “% Inhibition” value was -13% and the Z score was 1.26.
For `CN(C)c1ccc(C2=NNC(c3cccs3)=Nc3ccccc32)cc1`, the “% Inhibition” value was -2% and the Z score was 0.24.
With `c1ccc(-c2cnn3cc(CN4CC[C@H]4c4ccccc4)cnc23)cc1` the “% Inhibition” value was -2% and the Z score was 0.23.
In the case of `C[C@H](C(=O)N1CCCC1(CO)CO)C1CC1`, the “% Inhibition” value is reported as -8% and the Z score is reported as 1.28.
With `C[C@@H](c1ccccc1Cl)n1ccnc1-c1ccc(S(C)(=O)=O)cc1` the “% Inhibition” value was 7% and the Z score was -1.33.
For `Cc1cnc(C)c(N2C[C@H](O)[C@@H](N3CCN(C)CC3)C2)n1`, the “% Inhibition” value was 7% and the Z score was -1.05.
With `O=C1C[C@H](Cc2ccccc2)CN1Cc1cncnc1` the “% Inhibition” value was -3% and the Z score was 0.47.
`CC(=O)NCc1ccc(C(=O)Nc2ccc3nnc(C(C)C)n3c2)s1` was tested, and the “% Inhibition” value was 3% and the Z score was -0.55.
For `Cc1cc2oc(-c3ccccc3)c(CC(=O)O)c2c(O)n1`, the “% Inhibition” value was -9% and the Z score was 1.14.
In the case of `CCCCN(Cc1cccnc1)C(=O)c1nc(C)[nH]c1C`, the “% Inhibition” value is reported as -14% and the Z score is reported as 2.08.
`Cn1cccc1C(=O)Nc1ccccc1CN1CCCCC1` was tested, and the “% Inhibition” value was -10% and the Z score was 1.65.
In the case of `COc1ccc(CC2=NO[C@H](C(=O)N3CCN(c4cccc(OC)c4)C(=O)C3)C2)cc1`, the “% Inhibition” value is reported as -11% and the Z score is reported as 1.37.
For `FC(F)c1ccc(-c2noc([C@@H]3CC=CCC3)n2)cn1`, the “% Inhibition” value was -12% and the Z score was 1.93.
`CN(Cc1nc(-c2ccncc2)no1)c1ncnc2c1CCNCC2` was tested, and the “% Inhibition” value was 0% and the Z score was -0.05.
